In paper PMC10668032 one finds binding signal data, which are given here for 172 sequences.

The other results are listed elsewhere or left out. At the low end of the ranking the order means little.

The target in the assay is SIX1-Q177R homeodomain (UniProt Q15475). Briefly: universal protein binding microarray. Particulars: Universal all-10-mer PBM (8x60K, AMADID 030236), 300 nM GST-tagged protein, Alexa Fluor 488 anti-GST; buffer, salt, pH and temperature not stated; high values mean tight binding; most listed sequences are background and not binding sites; double strand, one strand shown.
In the case of CTTGGGGA, the binding signal worked out at 0.158 E-score.

For CGATATTA, the binding signal was -0.0548 E-score. The same measure for CGTTGTCA: -0.0756 E-score; for ACCATGAC: 0.0864 E-score; for AACTGTGC: -0.186 E-score. On to CTTATTCA, for which the binding signal is -0.165 E-score. With CTCGTAAA, the binding signal was -0.0661 E-score.

As to GGTCACAA, the binding signal turned out to be 0.0476 E-score.

Take AATACCCT: the binding signal amounted to 0.171 E-score. The same measure for ATCACCAT: 0.0185 E-score.

For AATTGTCG, the binding signal is -0.07 E-score. The same measure for AGCCTCCA: -0.277 E-score; for CCAAAGAG: -0.0999 E-score; for AGCCATAG: -0.0626 E-score. The same measure for TCGGGAGA: 0.0327 E-score; for TAGAATAA: 0.138 E-score; for CCCAGAAC: 0.0368 E-score. With GCACGTGA, the binding signal was -0.0782 E-score. CTGATAAG: the binding signal was -0.118 E-score. As for CCTGGGGC, the binding signal amounted to 0.0284 E-score.

On to ACATGGTC, for which the binding signal is -0.164 E-score.

Turning to GTTGACAA, the binding signal was -0.0933 E-score. Take CCCCGTCA: the binding signal is 0.0279 E-score.

Regarding CAGAGCAA, the binding signal was -0.131 E-score.

As to ATGAGCGC, the binding signal was -0.2 E-score. As to ACTTATAG, the binding signal came out at 0.1 E-score.

Take GCCTTTAC: the binding signal came to 0.122 E-score.

For the sequence GCTGTCAA, the binding signal was -0.241 E-score.

Turning to GAAACGTA, the binding signal was -0.0117 E-score. The same measure for GGGGGGTA: 0.341 E-score; for GTGCCAAC: 0.156 E-score; for AGCGCAGG: -0.114 E-score. Consider ATGAGGGG, for which the binding signal worked out at 0.195 E-score. In the case of GAATGGTA, the binding signal was determined as 0.0944 E-score. As for GCTGGCCC, the figure is -0.264 E-score; as for ACCATTCT, 0.0566 E-score. As for GACCCATA, the binding signal was -0.0706 E-score. For the sequence AAAGGAGG, the binding signal is -0.208 E-score. As for AAGAAATA, the figure is -0.177 E-score; as for CTTTCAGA, 0.0106 E-score; as for AGTGAAAA, -0.121 E-score. Turning to GTGAACCA, the binding signal was determined as 0.0698 E-score. With ACAGGGGT, the binding signal turned out to be 0.266 E-score. Regarding AGTTGTTC, the binding signal was -0.0319 E-score. As for AACAAAAT, the figure is -0.283 E-score; as for GAAGTCCC, -0.283 E-score; as for CTAGAGCA, -0.0979 E-score.

Regarding CTCCGGGC, the binding signal was -0.135 E-score.

Regarding AGGATCTG, the binding signal is -0.0171 E-score.

Take ACTGATGA: the binding signal is -0.104 E-score. As for ATCCGCCG, the binding signal was found to be 0.131 E-score. As for GACGAGGA, the binding signal is -0.205 E-score. On to GGAGGCCA, for which the binding signal was -0.217 E-score. As to CGTCGCAG, the binding signal was -0.129 E-score. Take CCAACTCG: the binding signal is 0.0547 E-score.

Turning to CCATTTCG, the binding signal is -0.22 E-score.

CCTGGTAC: the binding signal was -0.0455 E-score. As for CCTCTCTA, the figure is -0.0673 E-score. With TCATAGCA, the binding signal was -0.159 E-score. For the sequence CATATCGC, the binding signal is -0.0732 E-score.

Turning to AGTGGCAA, the binding signal is -0.199 E-score.

Take TATATACA: the binding signal was found to be 0.143 E-score. The same measure for ACGATAAA: -0.0977 E-score. As for TAGTTCGA, the binding signal was -0.0736 E-score. The same measure for GTATTAAC: 0.0594 E-score; for CACAAGCC: 0.0532 E-score. The same measure for AAACCGTG: 0.134 E-score; for CCATATTA: 0.0121 E-score. For ATAGCCTG, the binding signal was -0.087 E-score.

On to CACGCGCA, for which the binding signal was determined as 0.212 E-score. As for ACCTTACG, the figure is -0.0798 E-score.

As to CGCATCTA, the binding signal is -0.0442 E-score. For the sequence TAAAGTGA, the binding signal was -0.152 E-score. On to GCTCAGCA, for which the binding signal was -0.108 E-score. The same measure for CTCGGACC: -0.0615 E-score.

As to AGAACTTA, the binding signal was -0.0842 E-score. As for AATACAGT, the binding signal was -0.137 E-score. The same measure for ATTTACTA: -0.0242 E-score. Consider AGTTGTTA, for which the binding signal is -0.132 E-score. As for AAGACTAG, the figure is -0.221 E-score. Turning to CGATAAAA, the binding signal was -0.223 E-score.

Consider AGCGGCAT, for which the binding signal was -0.11 E-score. The same measure for TGAAATCA: -0.211 E-score. The same measure for CTAGAGAC: -0.136 E-score; for CAGCTGTA: -0.304 E-score; for AATGCACA: 0.0289 E-score. The same measure for ACTCTGTC: -0.0918 E-score; for GCGGCCCA: -0.057 E-score; for ATGACCCG: 0.2 E-score. For AATTTTAT, the binding signal is -0.264 E-score. Turning to AGAATATC, the binding signal was -0.16 E-score. For the sequence AGAGAGGA, the binding signal is -0.0901 E-score. The same measure for CAGACTGA: -0.25 E-score; for TCGAGTAA: 0.0637 E-score.

With CCGAGACG, the binding signal was determined as 0.0137 E-score. With TGAATAAA, the binding signal was -0.0868 E-score. Turning to GGCAGAAA, the binding signal was -0.149 E-score. As for ATGGATCC, the binding signal is 0.133 E-score. As to CATTAGAC, the binding signal is -0.0185 E-score.

For the sequence CCCACAAA, the binding signal is -0.0323 E-score. As for TACATATA, the figure is -0.128 E-score; as for TCATTTAA, -0.129 E-score. The same measure for CTCAAAAC: 0.0312 E-score; for AAATCAAG: -0.146 E-score. For the sequence GGCCACCC, the binding signal is -0.111 E-score. For ATACGTCG, the binding signal was -0.145 E-score. As for CATGCAGC, the binding signal was -0.242 E-score. As for CAAATGAC, the figure is -0.0786 E-score; as for AAAGCCGC, -0.288 E-score. Take GCTAGGAA: the binding signal was -0.199 E-score. As for GTCGCTGA, the figure is -0.126 E-score.

In the case of CGACGAAG, the binding signal was -0.0896 E-score. The same measure for AATGACTC: 0.245 E-score. With AGACGCTA, the binding signal was -0.234 E-score. Turning to CAAAGTCC, the binding signal was -0.0737 E-score.

Regarding AAGCGCCC, the binding signal is -0.192 E-score. Take ATGTCTTA: the binding signal was -0.123 E-score. On to AGCGATTG, for which the binding signal is -0.221 E-score.

As to AGACCTTA, the binding signal amounted to 0.0211 E-score.

As to AGGGGGCC, the binding signal is -0.189 E-score. For the sequence CAGGAATC, the binding signal is 0.0764 E-score. The same measure for AAAGGACG: -0.0117 E-score.

As to GCAGGTTA, the binding signal was 0.125 E-score.

In the case of ACATTTAC, the binding signal is -0.0498 E-score.

Regarding GCCGAACA, the binding signal stood at 0.116 E-score. The same measure for AACCCTGC: 0.0585 E-score; for GAACCCAC: 0.19 E-score. Turning to GAGCCGAC, the binding signal was -0.0478 E-score.

For the sequence AACCGAGC, the binding signal is -0.134 E-score. As for AGGAGTTG, the figure is 0.0312 E-score; as for CCGCTTGC, -0.122 E-score; as for ACATGTTA, -0.0791 E-score. As to CGGGTCCC, the binding signal is -0.00739 E-score. In the case of AAGCTACT, the binding signal was -0.122 E-score. In the case of CACTGGGG, the binding signal turned out to be 0.287 E-score. With CATAACAA, the binding signal was -0.0397 E-score. Regarding CACACAGC, the binding signal amounted to 0.127 E-score. GATGGACA: the binding signal is 0.0581 E-score.

Take CACAAAGC: the binding signal came out at 0.0208 E-score.

For GAGTATGC, the binding signal is 0.0527 E-score. The same measure for GAGCTAAA: -0.217 E-score; for ATCCACCC: 0.208 E-score; for AAGCAGTA: -0.301 E-score. CAACTTAG: the binding signal came out at 0.123 E-score.

Take AGGGTGAT: the binding signal was determined as 0.037 E-score. The same measure for TGTACAAA: 0.112 E-score; for CATGCTCG: -0.102 E-score. As for TAATACAA, the figure is 0.00681 E-score. On to AATTTGAT, for which the binding signal was -0.178 E-score. The same measure for ATACCCAA: 0.153 E-score; for AGAGAGGG: -0.0457 E-score. AGGAACTC: the binding signal was -0.279 E-score.

For the sequence CTTCGGAC, the binding signal is -0.00526 E-score. Regarding GCCGCTCA, the binding signal is -0.146 E-score. As for AAACGGTC, the figure is -0.276 E-score; as for AGATACTC, 0.13 E-score; as for AGTCATAT, 0.0539 E-score.

Regarding ATAGGGGA, the binding signal is -0.059 E-score. On to AATTTTAC, for which the binding signal is -0.0032 E-score. GCTGCCAC: the binding signal was -0.0573 E-score. The same measure for GCCACTTA: -0.128 E-score; for AGTAGGTC: -0.062 E-score; for ATGAGTCG: 0.0171 E-score. The same measure for ATAGCATA: -0.047 E-score; for CAGACTAG: -0.19 E-score; for GAGAAAGA: -0.202 E-score. Regarding TCGGCTCA, the binding signal is -0.213 E-score.

Take CGACAGAG: the binding signal was -0.218 E-score.

Turning to CTGGGTCC, the binding signal worked out at 0.00942 E-score. For the sequence GACTACCA, the binding signal is -0.0732 E-score. Regarding AATCTCAT, the binding signal was -0.165 E-score.

On to CACGCCTG, for which the binding signal turned out to be 0.202 E-score.
